The RNAGym collection of RNA variant scans (doi:10.1093/nar/gkz1192)
The source gives no read counts; variants with many changes may rest on few reads.

B1: CPEB3 Ribozyme (parent)
chain: UAACAGGGGGCCACAGCAGAAGCGUUCACGUCGCAGCCCCUGUCAGAUUCUGGUGAAUCUGCGAAUUCUGCUGUAUAUCUC

Variants of: B1
Assay: self-cleavage, relative activity (ratio to wild type); higher = more cleavage; in vitro, sequencing
In short: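 After error-prone PCR and barcoding, CPEB3 ribozyme mutant libraries were transcribed with T7 RNA polymerase at 37°C for 5 hours, then given 15 min with DNase I before an EDTA stop, and they cleaved during both steps. Reverse transcription with template switching preceded Illumina sequencing. Relative activity divides a variant's cleaved/total read fraction by the unmutated ribozyme's. At least 5 reads were required per variant, and three batches were averaged.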
A5U A15G G63C U74A showed a self-cleavage of 0.88.
In the case of A5U G8A A15G A18G U78C, the self-cleavage is reported as 0.58.
Variant A5U A56U G63C has a self-cleavage of 0.18.
A5G U51C U69C U80C showed a self-cleavage of 0.34.
For A5G G10A A20G, the self-cleavage was 0.46.
Variant A5U A28G U72C U78C has a self-cleavage of 1.01.
Work on A5G U43C U74C U78C yielded a self-cleavage of 0.36.
With A5G G10A U31A A77C the self-cleavage was 0.13.
Work on A5U U25A U60C U76C yielded a self-cleavage of 0.09.
A5G U41A U48C A64G U72A U80C showed a self-cleavage of 0.1.
A5G U51A U58C G61C gave a self-cleavage of 0.12.
In the case of A5G G9A G10A G24A U25A U51G, the self-cleavage is reported as 0.08.
Variant A5G U25G A45G A64G has a self-cleavage of 0.34.
For A5G G10A C27U A64G U78C, the self-cleavage was 0.09.
For A5G G33A A65U, the self-cleavage was 0.25.
With A5G U43A U69C U78C the self-cleavage was 0.45.
With A5U G7C U60C the self-cleavage was 0.49.
Work on A5U A28G A56U U78C yielded a self-cleavage of 0.24.
Work on A5G U26A A56G C62G yielded a self-cleavage of 0.09.
Variant A5U G16A U67A has a self-cleavage of 0.19.
A5G U26C C27U A77U gave a self-cleavage of 0.08.
For A5G U43C C59U U80C, the self-cleavage was 0.39.
With A5U A13C A21G U31A A64U the self-cleavage was 0.14.
With A5U A20U C32G G36A A45U A47G A65G the self-cleavage was 0.12.
In the case of A5G U26A A57G, the self-cleavage is reported as 0.23.
With A5U A21C G33A U43C A47G the self-cleavage was 0.16.
With A5G U67A U80G the self-cleavage was 0.39.
A5U A18C G42A U60C A64U A75U showed a self-cleavage of 0.07.
A5G U43C U49C U54G G63A A65U showed a self-cleavage of 0.2.
Variant A5G G10U U80C has a self-cleavage of 0.69.
With A5U U26A C79A the self-cleavage was 1.24.
For A5U G8A A20G U26C U31C C39A U72A, the self-cleavage was 0.05.
A5U A18G C40U A45C U58C A77G U80C gave a self-cleavage of 0.05.
Work on A5U C29U U31C U41G U60C yielded a self-cleavage of 0.1.
Work on A5G U41A U67C U76C yielded a self-cleavage of 0.05.
A5U A15U A35G A47U U72C gave a self-cleavage of 0.92.
With A5U C23U A28U U49G the self-cleavage was 0.37.
A5U A13U A45U A65G U78C gave a self-cleavage of 0.19.
In the case of A5U C29U A35G U69C G70A U80C, the self-cleavage is reported as 0.52.
For A5U G6A C17G C32G U49C A65U, the self-cleavage was 0.11.
Variant A5G G9A A13U has a self-cleavage of 0.41.
A5G U25C U26C C38A gave a self-cleavage of 0.09.
With A5G U66A U72C the self-cleavage was 0.34.
With A5U A18G U41A A57G U72A G73A the self-cleavage was 0.1.
Work on A5U C39U U48C yielded a self-cleavage of 0.41.
Work on A5G G10A U74A C79U yielded a self-cleavage of 0.81.
For A5G U26C A45U C81G, the self-cleavage was 0.39.
For A5U G9U G53A G63A U69A, the self-cleavage was 0.
Work on A5U U25C U31C A35U U72C yielded a self-cleavage of 0.39.
A5U U25A U26A A35G gave a self-cleavage of 0.42.
With A5G G9A A35G U41A the self-cleavage was 0.11.
For A5G U31A A57G, the self-cleavage was 0.2.
Variant A5U A13U A21G U25C C29U U41C U74A has a self-cleavage of 0.13.
Work on A5G U25C U66C yielded a self-cleavage of 0.24.
With A5U A18U U80C the self-cleavage was 0.68.
Work on A5G G9A U54C A57G U60A yielded a self-cleavage of 0.09.
For A5G U48A A56G, the self-cleavage was 0.3.
In the case of A5U G24C A75U, the self-cleavage is reported as 0.37.
In the case of A5U A21G A35G, the self-cleavage is reported as 1.19.
Work on A5G G9U A13U A15G yielded a self-cleavage of 0.42.
Variant A5G U25C U69A has a self-cleavage of 0.21.
Variant A5G G61A A77U has a self-cleavage of 0.23.
A5G U48C A65U showed a self-cleavage of 0.31.
A5U A28U A35G U41C U54C A75U gave a self-cleavage of 1.19.
A5U C12U A13U U54A G63C A65G U76A showed a self-cleavage of 0.68.
A5U A56U A64G gave a self-cleavage of 0.79.
In the case of A5U A18C U54G U60C, the self-cleavage is reported as 0.34.
For A5U A13G G16U U80A, the self-cleavage was 0.26.
In the case of A5G U26A U51A U66C, the self-cleavage is reported as 0.28.
With A5U C40U U51A the self-cleavage was 0.94.
Work on A5U A18U U25C C81A yielded a self-cleavage of 0.36.
A5G U26C C29U U31C C37U A57G U67A showed a self-cleavage of 0.06.
A5U G30A U41A A65G U76A gave a self-cleavage of 0.07.
With A5U G7U A21G A28G U41G U78A the self-cleavage was 0.04.
A5U G8U C11U A56G gave a self-cleavage of 0.07.
A5G U43C U54C A57G U69C showed a self-cleavage of 0.26.
In the case of A5U A13G U41A U58C A64G U72C, the self-cleavage is reported as 0.08.
A5G G24U U66C gave a self-cleavage of 0.09.
In the case of A5U C29U A47G U72A, the self-cleavage is reported as 0.17.
For A5U A56U U69A U72A, the self-cleavage was 0.3.
A5U A21G U25A A35U A45G U54C showed a self-cleavage of 0.32.
In the case of A5U C37U U41C U69A U72C, the self-cleavage is reported as 0.34.
Variant A5U A18U U41C U58G has a self-cleavage of 0.33.
With A5U U25A U26A the self-cleavage was 0.3.
For A5U U26A U69C, the self-cleavage was 0.54.
Work on A5G U31C C38U C44A A65G U80G yielded a self-cleavage of 0.06.
With A5U A28G A57G U58C A77U the self-cleavage was 0.17.
For A5G G9A G22U U41A, the self-cleavage was 0.31.
With A5U A20G A57G U58C U67A the self-cleavage was 0.11.
A5G G9C A15G U41C U76A gave a self-cleavage of 0.85.
Variant A5G U43C U58C has a self-cleavage of 0.29.
A5U A13U U54G U60C showed a self-cleavage of 0.49.
Work on A5G U60C A64G U78A U80C yielded a self-cleavage of 0.04.
In the case of A5U A21G U25A U31G, the self-cleavage is reported as 0.17.
A5G U25C U26C G36C U51A C68A gave a self-cleavage of 0.03.
Work on A5U G24A G70A yielded a self-cleavage of 0.13.
For A5U G9C G22A A56U, the self-cleavage was 0.47.
For A5G U60C U69A A77C, the self-cleavage was 0.09.
For A5U C12A U49A, the self-cleavage was 0.86.
A5G U25C A35G A56G gave a self-cleavage of 0.47.
A5U A13U U72C gave a self-cleavage of 1.09.
In the case of A5G U25C C32A C37A U48C U69C, the self-cleavage is reported as 0.07.
Variant A5G U25C U74C has a self-cleavage of 0.35.
A5U A28U G33A U43C A57G U67C gave a self-cleavage of 0.09.
In the case of A5U A35G G42A U51C U58G, the self-cleavage is reported as 0.13.
With A5U A21G A35U U69A the self-cleavage was 0.19.
Work on A5U A15G U25A U26A yielded a self-cleavage of 0.62.
Work on A5U G8A G9C A28G U48A C59G A64G yielded a self-cleavage of 0.05.
Work on A5G U49C U51A G70A yielded a self-cleavage of 0.46.
For A5U G16A U31C A45G U49C G61U G70A, the self-cleavage was 0.01.
With A5U A13G A56G G70C U74C A75G the self-cleavage was 0.2.
Work on A5U G6A A21G U25A A47U yielded a self-cleavage of 0.1.
A5U G8U U72A gave a self-cleavage of 0.17.
A5G G8A U43C U51A C68U gave a self-cleavage of 0.05.
With A5G U25C U60C the self-cleavage was 0.35.
A5U A13G A21G U58G U66C gave a self-cleavage of 0.22.
For A5U U25C C32U U54G U74C, the self-cleavage was 0.29.
Work on A5U A18G U76A yielded a self-cleavage of 0.86.
In the case of A5U G9A U31A U60A A65G U67C, the self-cleavage is reported as 0.05.
A5U C17U A45G showed a self-cleavage of 0.79.
With A5G U31C U43C U48C the self-cleavage was 0.47.
A5U C11G U26C U41G U49C U67A showed a self-cleavage of 0.07.
A5U G24A A28G showed a self-cleavage of 0.27.
With A5G U48A A57U the self-cleavage was 0.97.
For A5G U26C U43A A57U U58C, the self-cleavage was 0.47.
In the case of A5G U26A U41C G52U, the self-cleavage is reported as 0.25.
Work on A5U A15G A47G U54C A56U U67A U78A yielded a self-cleavage of 0.25.
Work on A5U A13U U26C U41A yielded a self-cleavage of 0.28.
For A5U C11G A28U A35U U41C A64G C81U, the self-cleavage was 0.04.
A5U A21G U26C C34U A64U C71U U76C showed a self-cleavage of 0.05.
A5G U26C U69C U72A U80G gave a self-cleavage of 0.07.
For A5G U26C U51C U60A A65U, the self-cleavage was 0.31.
In the case of A5G U25C U41A U51A A64G U80C, the self-cleavage is reported as 0.08.
A5G U31G G33U A35C U76G gave a self-cleavage of 0.23.
A5G U26A U54A U69C A77C U78A showed a self-cleavage of 0.29.
Work on A5U A13U A18G U48A G63U yielded a self-cleavage of 0.41.
For A5G U25C U41C A75U, the self-cleavage was 0.36.
In the case of A5U U31C C32U, the self-cleavage is reported as 0.27.
A5G G9A C39A G42U U51A U66C gave a self-cleavage of 0.06.
A5G G9U A13G A21G C40A A47G U60C gave a self-cleavage of 0.09.
In the case of A5U G8U A15G A18G A28G U54G, the self-cleavage is reported as 0.41.
Variant A5G U43A U51A A64G U72A has a self-cleavage of 0.44.
For A5G U49A U69C, the self-cleavage was 0.35.
With A5U C17U C23U U43A A56U U60C U72G the self-cleavage was 0.04.
A5U C14A U69C showed a self-cleavage of 0.52.
Variant A5U A18G U48C U51C has a self-cleavage of 0.37.
With A5U A18G A35G U54A the self-cleavage was 1.24.
In the case of A5G U31C C34U U49C, the self-cleavage is reported as 0.29.
With A5U A35U G61A U72C the self-cleavage was 0.13.
A5U C12G A56G A57U U80C showed a self-cleavage of 0.29.
In the case of A5U C11U C17U A18G A65U, the self-cleavage is reported as 0.19.
With A5U A20U A21G U41C A45G U58A the self-cleavage was 0.11.
Variant A5U C14U A35U has a self-cleavage of 0.98.
In the case of A5U G24U U31C A45U, the self-cleavage is reported as 0.22.
With A5U C11A C37G U43C U69C the self-cleavage was 0.24.
A5G U43C U66A A75U showed a self-cleavage of 0.07.
With A5G U41A A47G U49C A56U the self-cleavage was 0.12.
With A5G U41A A47G A75G the self-cleavage was 0.27.
A5U C11A A35U G36U C38A C40A U80C showed a self-cleavage of 0.07.
For A5G U26C U69C U74C, the self-cleavage was 0.2.
For A5G U25C C44A U49C U69C, the self-cleavage was 0.14.
For A5G U41C U43A A57G U66C U72A, the self-cleavage was 0.43.
A5U G9A C37A A65G G73A showed a self-cleavage of 0.05.
A5U A13G U72C gave a self-cleavage of 0.99.
A5U A65G U69A gave a self-cleavage of 0.21.
A5U G10C A18G U60C U69C showed a self-cleavage of 0.08.
Work on A5U A47G U48C U72C yielded a self-cleavage of 0.61.
